The campaign covered roughly 360,000 compounds. About 520 (0.14%) were called active. Inconclusive means that the source gave no clear call. Such entries were picked first, then a sample of the others. The call rests on the fitted dose curve; in most records, active means well fitted inhibition curve with a large enough effect; inconclusive means small, poorly fitted or top-dose-only effect; inactive means no such curve, though single readings can be large or run the other way. Potencies of inconclusive entries are left out as doubtful fits.
These compounds were tested against Rap guanine nucleotide exchange factor 3 (Homo sapiens) (UniProt O95398) (assay: qHTS for Antagonist of cAMP-regulated guanine nucleotide exchange factor 3 (EPAC1): primary screen). Conditions: EPAC1 GEF assay, Rap1b-BODIPY-GDP exchange fluorescence; activity change, negative = inhibition: at 115 µM (top of the series).
Chain of UniProt O95398 (O95398 whole entry, looked up): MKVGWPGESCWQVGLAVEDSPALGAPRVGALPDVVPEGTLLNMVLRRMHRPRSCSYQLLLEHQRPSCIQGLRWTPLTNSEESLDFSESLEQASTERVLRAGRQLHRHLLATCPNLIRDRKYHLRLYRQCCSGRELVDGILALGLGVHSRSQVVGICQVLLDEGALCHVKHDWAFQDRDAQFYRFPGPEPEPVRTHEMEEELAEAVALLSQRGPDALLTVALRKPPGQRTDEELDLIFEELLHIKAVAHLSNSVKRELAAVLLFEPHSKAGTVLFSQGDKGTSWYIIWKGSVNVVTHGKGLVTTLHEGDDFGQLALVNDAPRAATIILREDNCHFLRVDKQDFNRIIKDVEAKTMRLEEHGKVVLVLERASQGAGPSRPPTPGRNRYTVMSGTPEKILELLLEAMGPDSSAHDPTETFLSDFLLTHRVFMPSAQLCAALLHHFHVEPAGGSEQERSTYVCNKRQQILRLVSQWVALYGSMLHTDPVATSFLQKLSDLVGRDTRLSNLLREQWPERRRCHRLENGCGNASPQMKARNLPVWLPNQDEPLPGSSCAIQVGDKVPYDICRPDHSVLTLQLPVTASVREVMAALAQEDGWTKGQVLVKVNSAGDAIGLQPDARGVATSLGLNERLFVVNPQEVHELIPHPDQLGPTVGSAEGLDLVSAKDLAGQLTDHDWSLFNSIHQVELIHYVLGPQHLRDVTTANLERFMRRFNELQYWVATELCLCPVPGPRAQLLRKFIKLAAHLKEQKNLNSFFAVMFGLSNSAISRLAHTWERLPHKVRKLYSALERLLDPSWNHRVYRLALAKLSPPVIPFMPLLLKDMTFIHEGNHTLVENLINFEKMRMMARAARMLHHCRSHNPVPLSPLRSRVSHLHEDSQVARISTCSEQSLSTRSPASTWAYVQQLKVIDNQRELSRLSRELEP
With COc1ccc(NS(=O)(=O)c2cc(NC(=O)C3CCCO3)ccc2N2CCCCC2)cc1 (configuration not stated) the Potency was inconclusive [inhibitor, single point].
With COc1ccc(C2OC(=O)CC2C(=O)NCc2ccc(Cl)cc2)cc1OC (configuration not stated) the “activity change, negative = inhibition” value was inactive: -6.97%.
With Cc1cc(C)c2c(n1)SCC(=O)N2CC(=O)Nc1ccc(F)cc1 the Potency was inconclusive [inhibitor, single point].
In the case of O=C(NCc1ccco1)/C(=C\c1ccco1)NC(=O)c1ccc(Br)o1, the Potency is reported as inconclusive [inhibitor, single point].
O=C(Nc1nnc(S(=O)(=O)N2CCCCCC2)s1)c1ccc(Br)cc1 was tested, and the Potency was inconclusive [inhibitor, single point].
With Cc1cc(C(=O)Cn2ncc(Cl)c(Cl)c2=O)c(C)n1CC(F)(F)F the Potency was inconclusive [inhibitor, single point].
For CCN(C(=O)COC(=O)c1ccccc1NCCO)c1cccc2ccccc12, the Potency was inconclusive [inhibitor, single point].
In the case of S=C(NCCN1CCOCC1)N/N=C/c1c2ccccc2cc2ccccc12, the Potency is reported as inconclusive [inhibitor, full curve, poor fit].
With Cc1cc(C)c(C)c(S(=O)(=O)N2CCC(C(=O)N3CCN(c4ccc(F)cc4)CC3)CC2)c1C the Potency was inconclusive [inhibitor, partial curve].
O=C(COc1ncnc2ccccc12)c1ccc2c(c1)OCCO2 was tested, and the “activity change, negative = inhibition” value was inactive: -13.5%.
With O=C(Nc1cc(S(=O)(=O)Nc2ccc(Cl)cc2)ccc1O)c1ccc(S(=O)(=O)N2CCCCCC2)cc1 the Potency was inconclusive [inhibitor, partial curve, poor fit].
O=S(=O)(Nc1ccc(O)c(Sc2nc3ccccc3s2)c1)c1cccc2ccccc12 was tested, and the “activity change, negative = inhibition” value was inactive: -24%.
CC(=O)NC(c1cccs1)c1cc(Cl)c2ccccc2c1O (configuration not stated) was tested, and the “activity change, negative = inhibition” value was inactive: -22.8%.
In the case of CCOC(=O)N1CCN(/C=C(\C#N)c2nc3ccccc3s2)CC1, the Potency is reported as inconclusive [inhibitor, single point].
For CCN(Cc1ccncc1)Cc1cn[nH]c1-c1cc(OC)c(OC)c(OC)c1, the Potency was inconclusive [inhibitor, partial curve].
COc1ccc(CCNC(=O)c2cc(C(=O)c3cc(Cl)ccc3O)cn(CCc3ccc(OC)cc3)c2=O)cc1 was tested, and the Potency was inconclusive [inhibitor, single point].
For Cc1cc(C)c(OCC(=O)N(Cc2ccc(N(C)C)cc2)C2CCS(=O)(=O)C2)c(C)c1 (configuration not stated), the Potency was inconclusive [inhibitor, full curve, poor fit].
O=C(/C=C/c1ccccc1)COC(=O)c1ccccc1 was tested, and the “activity change, negative = inhibition” value was inactive: -22.5%.
With Cc1cccc2nc(-c3cccc(NC(=O)c4ccc(Cl)cc4)c3)cn12 the Potency was inconclusive [inhibitor, single point].
In the case of COC(=O)/C(C#N)=C/c1ccc(-c2ccc(S(N)(=O)=O)cc2)o1, the “activity change, negative = inhibition” value is reported as inactive: 6.25%.
In the case of O=C(Oc1ccccc1N1C(=O)C2CC=CCC2C1=O)c1ccc(Br)cc1 (configuration not stated), the Potency is reported as inconclusive [inhibitor, single point].
Oc1cc(Nc2ccncc2)cc2cccnc12 was tested, and the “activity change, negative = inhibition” value was inactive: 0.627%.
With O=C(O)c1ccc(/C=N/n2cc(-c3ccccc3)[nH]c2=S)cc1 the “activity change, negative = inhibition” value was inactive: 0.955%.
In the case of CCc1nnc(NS(=O)(=O)c2ccc(NC(=S)NC(=O)/C=C/c3ccccc3)cc2)s1, the Potency is reported as inconclusive [inhibitor, full curve].
In the case of COc1ccc(S(=O)(=O)NCC(=O)N(CC(=O)NCC2CCCO2)Cc2ccccc2)cc1 (configuration not stated), the “activity change, negative = inhibition” value is reported as inactive: 4.02%.
For Cc1ccc(N(C(=O)Cn2nnc(-c3ccc(F)cc3)n2)C(C(=O)NC(C)(C)C)c2ccncc2)cc1 (configuration not stated), the Potency was inconclusive [inhibitor, partial curve, poor fit].
For c1ccc(Cn2nnc3c(N4CCc5ccccc5C4)ncnc32)cc1, the Potency was inconclusive [inhibitor, partial curve].
In the case of O=C(/C=C/c1ccccc1Cl)c1cccnc1, the “activity change, negative = inhibition” value is reported as inactive: -8.92%.
In the case of COc1ccc(C2SCC(=O)N2CCCN(C)C)cc1 (configuration not stated), the Potency is reported as inconclusive [inhibitor, single point].
COc1cc(-c2cc(C(=O)Nc3c(Cl)cc(Cl)cc3Cl)c3ccccc3n2)cc(OC)c1OC was tested, and the “activity change, negative = inhibition” value was inactive: -1.51%.
CCOc1ccccc1NC(=O)CN(c1ccc(OC)cc1)S(=O)(=O)c1c(C)noc1C was tested, and the Potency was inconclusive [inhibitor, full curve, poor fit].
With O=C(O)c1[nH]c2ccccc2c1C(c1cc(Br)ccc1O)c1c(C(=O)O)[nH]c2ccccc12 the Potency was active: 44.7 µM.
Cc1nnc(C)n1N was tested, and the Potency was inconclusive [inhibitor, single point].
For O=C(c1ccc(OC2CCN(C/C=C/c3ccc(F)cc3)CC2)cc1)N1CCCC1, the Potency was inconclusive [inhibitor, single point].
In the case of CSc1nnc(N2C(=O)C(O)=C(C(=O)c3ccco3)C2c2ccccc2F)s1 (configuration not stated), the Potency is reported as inconclusive [inhibitor, single point].
CCCCCCCCCCn1c2c(c(=N)c3c1CCC3)CCC2 was tested, and the Potency was inconclusive [inhibitor, partial curve, poor fit].
For CC(=O)c1c(C)[nH]c(C(=O)Nc2ccc(Cl)c(S(=O)(=O)N3CCOCC3)c2)c1C, the Potency was inconclusive [inhibitor, partial curve, poor fit].
For CC(=O)Nc1ccc(Sc2ncccc2C(=O)Nc2ccc(OC(F)(F)F)cc2)cn1, the “activity change, negative = inhibition” value was inactive: -6.34%.
O=C(Cn1cnc2c(nnn2Cc2ccccc2)c1=O)c1ccccc1 was tested, and the Potency was inconclusive [inhibitor, full curve, poor fit].
Cc1ccc(N(CC(=O)Nc2ccccc2C(=O)NCc2ccco2)S(=O)(=O)c2ccccc2)cc1C was tested, and the Potency was inconclusive [inhibitor, full curve, poor fit].
In the case of CCOC(=O)Cc1c[nH]c(=S)[nH]c1=O, the Potency is reported as inconclusive [inhibitor, full curve, poor fit].
For CCOC(=O)C1=C(O)/C(=C\c2ccc(CNS(=O)(=O)c3ccc(Br)cc3)o2)N=C1C, the Potency was inconclusive [inhibitor, partial curve].

From PubChem BioAssay AID720709 (National Center for Advancing Translational Sciences (NCATS), 2013)
Further: nearly all actives have a fitted effect of over 50% in size.
Potency means the concentration at half of the fitted maximal effect; tags describe the fitted curve by direction and shape.
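Wherever activity change, negative = inhibition is given: plate controls were vehicle for no effect and positive control for full effect.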
